Source: PMC4336329 (PLoS ONE, 2015)
Screen size: about 310,000 compounds; about 2,200 (0.71%) showed an effect of 50% or more. The effect is printed as a negative number. The list shows a part of the results.

Target: human ether-à-go-go-related gene (hERG) potassium channel (human, UniProt Q12809)
Assay: primary screen, population patch clamp on CHO cells stably expressing hERG

Chain of human ether-à-go-go-related gene (hERG) potassium channel (Q12809 whole entry, looked up): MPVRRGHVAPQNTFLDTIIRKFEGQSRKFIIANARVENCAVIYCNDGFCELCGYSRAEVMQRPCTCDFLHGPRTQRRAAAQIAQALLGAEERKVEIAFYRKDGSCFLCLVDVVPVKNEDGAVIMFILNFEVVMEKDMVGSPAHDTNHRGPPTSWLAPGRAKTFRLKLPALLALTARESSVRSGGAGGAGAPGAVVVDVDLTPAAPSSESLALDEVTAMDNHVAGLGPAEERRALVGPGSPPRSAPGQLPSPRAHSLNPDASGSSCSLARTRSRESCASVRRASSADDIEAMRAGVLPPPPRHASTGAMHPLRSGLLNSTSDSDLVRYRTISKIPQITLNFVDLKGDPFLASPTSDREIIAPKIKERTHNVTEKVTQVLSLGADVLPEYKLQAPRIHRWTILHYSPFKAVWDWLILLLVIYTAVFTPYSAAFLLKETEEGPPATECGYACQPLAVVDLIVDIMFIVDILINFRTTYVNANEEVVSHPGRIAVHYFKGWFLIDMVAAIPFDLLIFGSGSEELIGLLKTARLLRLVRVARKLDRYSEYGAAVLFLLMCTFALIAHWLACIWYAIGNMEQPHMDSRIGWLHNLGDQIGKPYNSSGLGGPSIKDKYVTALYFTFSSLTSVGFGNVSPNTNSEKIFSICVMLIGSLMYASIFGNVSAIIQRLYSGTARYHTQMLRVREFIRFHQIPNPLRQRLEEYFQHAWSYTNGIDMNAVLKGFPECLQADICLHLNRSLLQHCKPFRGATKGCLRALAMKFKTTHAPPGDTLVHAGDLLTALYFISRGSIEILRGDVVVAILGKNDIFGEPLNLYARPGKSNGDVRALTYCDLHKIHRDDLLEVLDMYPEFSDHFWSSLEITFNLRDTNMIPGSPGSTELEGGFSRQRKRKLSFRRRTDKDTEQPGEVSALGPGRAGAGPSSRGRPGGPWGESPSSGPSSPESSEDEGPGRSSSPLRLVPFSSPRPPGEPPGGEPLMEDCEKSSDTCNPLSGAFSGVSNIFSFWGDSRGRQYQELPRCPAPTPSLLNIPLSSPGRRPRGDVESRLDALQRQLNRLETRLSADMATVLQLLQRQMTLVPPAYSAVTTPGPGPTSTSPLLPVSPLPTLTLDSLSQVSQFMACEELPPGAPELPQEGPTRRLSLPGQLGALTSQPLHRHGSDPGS

Row | Structure (SMILES) | hERG current change (%, negative = inhibition) at 1uM [%]
1 | O=C(N/N=C/c1ccc([N+](=O)[O-])o1)c1ccncc1 | 8.16
2 | O=C(CSc1ncn[nH]1)NCc1ccc(Cl)cc1 | 17.5
3 | Cc1cc(C(=O)N2CCc3ccccc3C2)no1 | 8.58
4 | COc1ccc(N2C(=O)CSC23C(=O)Nc2ccccc23)cc1 (stereo not shown) | 3.9
5 | O=C(NCC(=O)N1CCN(C(=O)c2ccco2)CC1)c1ccc(Br)cc1 | -1.46
6 | Cc1cc(C)c(-c2csc(NC(=O)CCCc3nc4ccccc4c(=O)[nH]3)n2)c(C)c1 | 10.9
7 | O=C(NCCN1CCOCC1)c1ccc(CSc2nc3ccncc3n2Cc2ccc(F)cc2)cc1 | 13.7
8 | COC(=O)C1=C(c2ccc(OC)cc2)OC(=O)C1(C)C | 6.03
9 | COc1cc(C2NC(=O)NC(c3ccccc3)=C2C(C)=O)c(Br)cc1OCC(N)=O (stereo not shown) | 16.1
10 | COC(=O)c1ccccc1NC(=O)/C=C/c1cc(OC)c(OC)c(OC)c1 | 3.18
11 | CCC/C=C1/CCCOC(C(=O)NCc2ccc(S(C)(=O)=O)cc2)(C(F)(F)F)C1 (stereo not shown) | 8.45
12 | CCN(CC)S(=O)(=O)c1ccc(C(=O)NCCN(C)C)cc1.Cl | 11.8
13 | Cc1sc2ncnc(Oc3ccc(-n4ccnc4)cc3)c2c1C | -10.2
14 | COc1cc(C(=O)NN(CCC#N)C2=NS(=O)(=O)c3ccccc32)cc(OC)c1OC | 12.6
15 | CCOC(=O)N1CCC(NC(=O)CCC(=O)N2CCOc3ccccc32)CC1 | 6.7
16 | COc1cc(/C=N/NC(N)=O)cc(Br)c1OCc1ccc(C)cc1 | 14.7
17 | O=C(Nc1nccs1)c1ccc(CSc2nnnn2-c2ccccc2)cc1 | 11.2
18 | Nc1nonc1-c1noc(-c2ccccc2)n1 | 9.88
19 | Cc1cnc(C(=O)NCCc2ccc(Cl)cc2)cn1 | 11.7
20 | O=C(N1CCOCC1)N1CCC(NC(=O)C23CC4CC(CC(C4)C2)C3)CC1 | 15.1
21 | COc1ccc(C(=O)N2CCN(c3ccc(F)cc3)CC2)cc1S(=O)(=O)NC1CC1 | -17.3
22 | Cc1ccccc1NC(=S)N1CCOCC1 | 8.93
23 | CS(=O)(=O)O.O.Oc1ccc2c3c1O[C@H]1c4oc5ccccc5c4C[C@@]4(O)[C@@H](C2)N(CC2CC2)CC[C@]314 | -68.1

Row | Structure (SMILES) | hERG current change (%, negative = inhibition) at 1uM [%]
24 | CC(=O)Oc1cccc(N2C(=O)c3ccc(C(=O)Nc4c[nH]c(=O)[nH]c4=O)cc3C2=O)c1 | 22.4
25 | Cc1cccc(S(=O)(=O)Nc2nc3ccccc3nc2NCc2ccco2)c1 | 15.1
26 | Cc1csc(NC(=O)C2CC(=O)N(Cc3ccco3)C2)n1 (stereo not shown) | 14.1
27 | Cc1ccc(-c2[nH]nc3c2C(c2ccoc2)C(C#N)=C(N)O3)cc1C (stereo not shown) | 5.66
28 | COc1c(Cl)cc(Cl)cc1C(=O)Nc1ccc(CN2CCCCC2)cc1 | -27.6
29 | COC(=O)[C@@]1(Cc2ccc(OC)cc2)[C@@H]2[C@@H](CC(=O)[C@H]2CC(=O)C(=O)N(C)C)CN1C(=O)c1ccccc1 | 4.46
30 | Cn1c(=O)[nH]c(=O)c2c1nc(CN1CCN(c3ccccc3F)CC1)n2CCc1ccccc1 | 12.7
31 | COc1nc(-c2ccccc2)ccc1-c1noc(-c2ccccc2F)n1 | 15.8
32 | O=C(NCc1ccccc1)C1=C[C@@H](c2coc3ccccc3c2=O)C[C@@H](OCc2ccc(CO)cc2)O1 | 8.12
33 | COc1ccc(NC(=O)C(=O)NCCN2CCN(C(=O)C(c3ccccc3)c3ccccc3)CC2)cc1 | -20.3
34 | CC(C)C(OC(=O)c1cccs1)C(=O)NC1CCCCC1 (stereo not shown) | 8.3
35 | Cc1nn(C)c(C)c1CN(C)S(=O)(=O)c1ccc2ccccc2c1 | 0.922
36 | O=C1CCn2nc(-c3ccc(Cl)cc3)cc2N1 | 3.13
37 | COc1ccccc1CC(=O)Nc1ccc(OC)c(OC)c1 | 16.8
38 | COc1ccc(CCC(=O)Nc2cc(Cl)ccc2OC)cc1 | 3.78
39 | O=C(NCC1CCCCC1)c1cccc(-c2ccc(O)cc2)c1 | 18.8
40 | O=C(NCC(c1ccco1)N1CCN(c2ccc(F)cc2)CC1)c1cccs1 (stereo not shown) | -0.0339
41 | Cc1ccnc2nc(C(=O)OCC(=O)N(CC(C)C)C3CCS(=O)(=O)C3)nn12 (stereo not shown) | 19.7
42 | COCCOC(=O)c1sc2nc[nH]c(=O)c2c1C | 15.8
43 | Cc1nnc(N2CCC(C(=O)N3CCCCCC3)CC2)c2nn(-c3ccc(Cl)cc3)c(C)c12 | -13.5
44 | CC(C)CCNC(=O)C(c1ccco1)N(Cc1ccc(F)cc1)C(=O)c1snc(C(N)=O)c1N (stereo not shown) | 3.05
45 | CCC(C)(C)NC(=O)CN(C(=O)c1csnn1)c1cccc2c1CCCC2 | 16.1
46 | O=C1CN(S(=O)(=O)c2ccccc2)c2ccccc2N1 | 12.7

Row | Structure (SMILES) | hERG current change (%, negative = inhibition) at 1uM [%]
47 | O=C1NC(=Nc2cccnc2)S/C1=C/c1ccc(F)cc1 | 3.23
48 | CCC(C)NC(=O)c1ccc2c(c1)N(Cc1ccccc1)C(=O)CS2 (stereo not shown) | 6.91
49 | CCn1c(C)nnc1SCC(=O)Nc1cccc(Cl)c1 | 0.21
50 | O=C(COC(=O)c1cc(Br)ccc1O)Nc1ccc2c(c1)OCCO2 | 4.95
51 | CSc1ccc(S(=O)(=O)NCC(=O)OCC(=O)N(C)C2CCCCC2)cc1[N+](=O)[O-] | 2.58
52 | COc1ccc(N=C2SC(C(=O)O)CC(=O)N2C)cc1 (stereo not shown) | 5.06
53 | Cc1ccc(N(CC(O)CN2CCCC2)S(=O)(=O)c2ccc(C)cc2)cc1.Cl (stereo not shown) | -81.7
54 | CC(C)c1nc2ccc(C(=O)O)cc2[nH]1 | 6.83
55 | Cc1cc(=O)oc(C)c1C(=O)OCC(=O)c1ccc(Cl)c(Cl)c1 | 3.79
56 | O=C(CN1CCCCCC1)Nc1ccccc1OC(F)F | 7.77
57 | COc1ccc(NC2c3ccccc3C(=O)N2c2ccccn2)cc1 (stereo not shown) | -3.94
58 | Cc1oc(-c2ccccc2Cl)nc1CN(C)C(C)c1ccon1 (stereo not shown) | 7.79
59 | CCOC(=O)c1nnn(-c2nonc2N)c1CN(CC)CC | 3.41
60 | CCOCCCNC(=O)c1ccc(/C=C2\Oc3ccccc3N(C)C2=O)cc1 | 19.8
61 | CC(=O)c1c(C)[nH]c(C(=O)NC2CCCCC2)c1C | 9.04
62 | O=C(Cc1ccccc1)NCC(=O)N1CCC2(CC1)NCCc1[nH]cnc12 | 18.4
63 | O=C(c1scc2c1CCCC2)N1CCOCC1 | 6.2
64 | Cc1ccc(C(=O)NC(c2ccccc2)C(Cl)Cl)cc1 (stereo not shown) | 4.46
65 | Cc1cccc(C(=O)O)c1NC(=O)c1ccc(F)cc1 | 13.4
66 | Cc1ccc(NC(=O)Nc2ccccc2C(=O)NCc2ccccc2)cc1 | 2.53
67 | CC(Sc1nc2c(cc1C#N)CCCCC2)C(=O)O (stereo not shown) | 12.8
68 | S=C(Nc1ccc2c(c1)OCCO2)Nc1ccc2c(c1)OCO2 | 17.2
69 | O=C1CC(SCc2nc3ccccc3[nH]2)C(=O)N1c1ccc(F)c(Cl)c1 (stereo not shown) | -2.27

Row | Structure (SMILES) | hERG current change (%, negative = inhibition) at 1uM [%]
70 | CC(C(=O)O)N1C(=O)CSC1=S (stereo not shown) | 8.05
71 | CCOC(=O)C(=O)Nc1ccc(OCc2ccccc2)cc1 | 4.71
72 | CCn1c(C)nc2cc(S(=O)(=O)N3CCCCC3)ccc21 | -0.0535
73 | CCOc1ccc(Cn2nnc(C(=O)Nc3ccc(OC)cc3OC)c2N)cc1 | 11.2
74 | CCN(CC)CCNC(=O)C1(O)c2cc(Br)ccc2NC(=O)N1c1c(F)cccc1F (stereo not shown) | 13.3
75 | CC(C)C(=O)NC(=O)COC(=O)/C=C/c1cccs1 | 13.3
76 | CNC(=O)CCCCCNS(=O)(=O)c1ccc(C)cc1 | -1.73
77 | CC(=O)c1ccc(NC(=O)Nc2ccc(Cl)cc2)cc1 | 6.57
78 | COc1cc(N=Cc2c(O)[nH]c3ccccc23)cc(OC)c1OC | 12.5
79 | Nc1ncc(S(=O)(=O)c2ccc(Cl)cc2)c(N)n1 | 5.71
80 | O=C(NCC1CCCO1)/C(=C\c1ccccc1F)NC(=O)c1ccccc1 (stereo not shown) | 5.25
81 | Cc1cc(C(=O)NCC(=O)OCC(=O)N2CCCCCC2)ccc1[N+](=O)[O-] | 15.3
82 | Cc1ccccc1C(=O)NC1CCN(Cc2nnnn2C(C)(C)C)CC1 | 17.2
83 | COC(=O)c1sccc1NC(=O)c1cc(OC)c(OC)c(OC)c1 | 6.61
84 | COC(=O)c1ccc(C(=O)NC2CCCN(Cc3ccc(Cl)cc3)C2)nc1 (stereo not shown) | -11.3
85 | CCOC(=O)N1CCN(C(=O)COc2ccccc2Cl)CC1 | 3.45
86 | O=C1C=CC(O)(c2cc(=O)c3c(O)cc(O)cc3o2)C=C1 | 19.7
87 | O=C(Nc1ccccc1-c1ccccc1)C(=O)Nc1ccccc1-c1ccccc1 | 17.3
88 | CCCCCCCNc1cccc(C)c1 | 11
89 | CCCCNC(=O)Nc1c(C)cc(SC#N)cc1C | 13.3
90 | N#C/C(=C\c1cccc(Br)c1)C(=O)N1CCCCC1 | 11.5
91 | N=c1oc2ccc(Br)cc2cc1C(=O)NCc1ccccc1 | 9
